Measured values: the supplement of paper PMC8728848
This is one part of the list.

Legend:
Test in all cases: glycan array binding signal (z-score within array); higher = stronger binding
Settings in all cases: glycan notation: IUPAC condensed, linker removed
[1] = target: Fuc(a1-2)Gal
Method in brief: (§1)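 Glycan array data came from 3228 arrays in the Consortium for Functional Glycomics database, and only arrays with an available protein sequence were kept. Glycan names were put into IUPAC-condensed notation, and columns mapping to the same glycan were averaged. The binding signal is a within-array Z-score, averaged across arrays of one protein sequence run at different concentrations or buffers and across linkers. A negative Z-score can be read as non-binding.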

[2] = target: Fuc(a1-2)Gal(b1-3)GalNAc
Method in brief: as §1

[3] = target: Fuc(a1-2)Gal(b1-3)GalNAc(a1-3)[Fuc(a1-2)]Gal(b1-4)Glc
Method in brief: as §1

[4] = target: Fuc(a1-2)Gal(b1-3)GalNAc(a1-3)[Fuc(a1-2)]Gal(b1-4)GlcNAc
Method in brief: as §1

[5] = target: Fuc(a1-2)Gal(b1-3)GalNAc(b1-3)Gal
Method in brief: as §1

[6] = target: Fuc(a1-2)Gal(b1-3)GalNAc(b1-3)Gal(a1-4)Gal(b1-4)Glc
Method in brief: as §1

[7] = target: Fuc(a1-2)Gal(b1-3)GalNAc(b1-4)[Neu5Ac(a2-3)]Gal(b1-4)Glc
Method in brief: as §1

[8] = target: Fuc(a1-2)Gal(b1-3)GlcNAc
Method in brief: as §1

[9] = target: Fuc(a1-2)Gal(b1-3)GlcNAc(b1-2)Man(a1-3)[Fuc(a1-2)Gal(b1-3)GlcNAc(b1-2)Man(a1-6)]Man(b1-4)GlcNAc(b1-4)GlcNAc
Method in brief: as §1

[10] = target: Fuc(a1-2)Gal(b1-3)GlcNAc(b1-2)Man(a1-3)[Fuc(a1-2)Gal(b1-3)GlcNAc(b1-2)Man(a1-6)]Man(b1-4)GlcNAc(b1-4)[Fuc(a1-6)]GlcNAc
Method in brief: as §1

[11] = target: Fuc(a1-2)Gal(b1-3)GlcNAc(b1-3)Gal(b1-4)Glc
Method in brief: as §1

[12] = target: Fuc(a1-2)Gal(b1-3)GlcNAc(b1-3)GalNAc
Method in brief: as §1

[13] = target: Fuc(a1-2)Gal(b1-3)GlcNAc(b1-3)[Fuc(a1-2)Gal(b1-3)GlcNAc(b1-6)]GalNAc
Method in brief: as §1

[14] = target: Fuc(a1-2)Gal(b1-3)GlcNAc(b1-3)[Gal(b1-4)GlcNAc(b1-6)]Gal(b1-4)Glc
Method in brief: as §1

[15] = target: Fuc(a1-2)Gal(b1-3)GlcNAc(b1-3)[Neu5Ac(a2-6)Gal(b1-4)GlcNAc(b1-6)]Gal(b1-4)Glc
Method in brief: as §1

[16] = target: Fuc(a1-2)Gal(b1-3)GlcNAc6S
Method in brief: as §1

[17] = target: Fuc(a1-2)Gal(b1-3)[Fuc(a1-4)]GlcNAc
Method in brief: as §1

[18] = target: Fuc(a1-2)Gal(b1-3)[Fuc(a1-4)]GlcNAc(b1-2)Man(a1-3)[Fuc(a1-2)Gal(b1-3)[Fuc(a1-4)]GlcNAc(b1-2)Man(a1-3)]Man(b1-4)GlcNAc(b1-4)GlcNAc
Method in brief: as §1

[19] = target: Fuc(a1-2)Gal(b1-3)[Fuc(a1-4)]GlcNAc(b1-2)Man(a1-3)[Fuc(a1-2)Gal(b1-3)[Fuc(a1-4)]GlcNAc(b1-2)Man(a1-6)]Man(b1-4)GlcNAc(b1-4)[Fuc(a1-6)]GlcNAc(b1-4)[Fuc(a1-6)]GlcNAc
Method in brief: as §1

[20] = target: Fuc(a1-2)Gal(b1-3)[Fuc(a1-4)]GlcNAc(b1-3)[Fuc(a1-3)[Gal(b1-4)]GlcNAc(b1-6)]Gal(b1-4)Glc
Method in brief: as §1

[21] = target: Fuc(a1-2)Gal(b1-3)[Fuc(a1-4)]GlcNAc(b1-3)[Gal(b1-4)GlcNAc(b1-6)]Gal(b1-4)Glc
Method in brief: as §1

[22] = target: Fuc(a1-2)Gal(b1-4)Fuc(a1-3)]GlcNAc(b1-2)Man(a1-3)[Fuc(a1-2)Gal(b1-4)[Fuc(a1-3)]GlcNAc(b1-2)Man(a1-6)]Man(b1-4)GlcNAc(b1-4)GlcNAc
Method in brief: as §1

[23] = target: Fuc(a1-2)Gal(b1-4)Glc
Method in brief: as §1

[24] = target: Fuc(a1-2)Gal(b1-4)Glc6S
Method in brief: as §1

[25] = target: Fuc(a1-2)Gal(b1-4)GlcNAc
Method in brief: as §1

[26] = target: Fuc(a1-2)Gal(b1-4)GlcNAc(b1-2)Man
Method in brief: as §1

[27] = target: Fuc(a1-2)Gal(b1-4)GlcNAc(b1-2)Man(a1-3)[Fuc(a1-2)Gal(b1-4)GlcNAc(b1-2)Man(a1-6)]Man(b1-4)GlcNAc(b1-4)GlcNAc
Method in brief: as §1

[28] = target: Fuc(a1-2)Gal(b1-4)GlcNAc(b1-2)Man(a1-3)[Fuc(a1-2)Gal(b1-4)GlcNAc(b1-2)Man(a1-6)]Man(b1-4)GlcNAc(b1-4)[Fuc(a1-6)]GlcNAc
Method in brief: as §1

[29] = target: Fuc(a1-2)Gal(b1-4)GlcNAc(b1-2)[Fuc(a1-2)Gal(b1-4)GlcNAc(b1-4)]Man(a1-3)[Fuc(a1-2)Gal(b1-4)GlcNAc(b1-2)Man(a1-6)]Man(b1-4)GlcNAc(b1-4)GlcNAc
Method in brief: as §1

[30] = target: Fuc(a1-2)Gal(b1-4)GlcNAc(b1-3)Gal(b1-4)GlcNAc
Method in brief: as §1

B1: UDA (Urtica dioica), P11218 (protein)
chain: MMMRFLSAVVIMSSAMAVGLVSAQRCGSQGGGGTCPALWCCSIWGWCGDSEPYCGRTCENKCWSGERSDHRCGAAVGNPPCGQDRCCSVHGWCGGGNDYCSGSKCQYRCSSSVRGPRVALSGNSTANSIGNVVVTEPLFDQMFSHRKDCPSQGFYSYHSFLVAAESFPAFGTIGDVATRKREVAAFLAHISQATSGERSDVENPHAWGLCHINTTTVTENDFCTSSDWPCAAGKKYSPRGPIQLTHNFNYGLAGQAIGEDLIQNPDLVEKDPIISFKTALWFWMSQHDNKPSCHDIVLNANSAANRIPNKGVIGNIISRAFGHDDFAVRSSSIGFYKRYCDMLGVSYGHDLKYWFDNTPSSEFQRIQMRVAA
[1]
  glycan array binding signal (z-score): -0.188
[2]
  glycan array binding signal (z-score): -0.181
[3]
  glycan array binding signal (z-score): -0.174
[4]
  glycan array binding signal (z-score): -0.177
[5]
  glycan array binding signal (z-score): -0.215
[6]
  glycan array binding signal (z-score): -0.215
[7]
  glycan array binding signal (z-score): -0.208
[8]
  glycan array binding signal (z-score): -0.188
[9]
  glycan array binding signal (z-score): -0.13
[10]
  glycan array binding signal (z-score): -0.17
[11]
  glycan array binding signal (z-score): -0.175
[12]
  glycan array binding signal (z-score): -0.179
[13]
  glycan array binding signal (z-score): -0.168
[14]
  glycan array binding signal (z-score): -0.109
[15]
  glycan array binding signal (z-score): -0.169
[16]
  glycan array binding signal (z-score): -0.182
[17]
  glycan array binding signal (z-score): -0.185
[18]
  glycan array binding signal (z-score): -0.156
[19]
  glycan array binding signal (z-score): -0.171
[20]
  glycan array binding signal (z-score): -0.173
[21]
  glycan array binding signal (z-score): -0.071
[22]
  glycan array binding signal (z-score): -0.138
[23]
  glycan array binding signal (z-score): -0.187
[24]
  glycan array binding signal (z-score): -0.172
[25]
  glycan array binding signal (z-score): -0.177
[26]
  glycan array binding signal (z-score): -0.18
[27]
  glycan array binding signal (z-score): -0.151
[28]
  glycan array binding signal (z-score): -0.157
[29]
  glycan array binding signal (z-score): -0.161
[30]
  glycan array binding signal (z-score): -0.076
